{"source": "PubChem BioAssay AID485367", "about": "(National Center for Advancing Translational Sciences (NCATS), 2010)", "note": "The whole screen tested about 330,000 compounds, of which about 560 (0.17%) were called active. Inconclusive means that the source gave no clear call. Such entries were picked first, then a sample of the others. Calls follow the shape of the dose curve; as a rule, active = well fitted inhibition curve with a large enough effect; inconclusive = small, poorly fitted or top-dose-only effect, or effect the other way; inactive = flat fitted curve, though single readings scatter. Potencies of inconclusive entries are left out as doubtful fits. Potency is read from the fitted curve at half-maximal effect; tags tell the direction and shape of the fitted curve.", "data": [{"biological_target": "ATP-dependent 6-phosphofructokinase (Trypanosoma brucei brucei) (UniProt O15648)", "sequence (O15648 whole entry, looked up)": "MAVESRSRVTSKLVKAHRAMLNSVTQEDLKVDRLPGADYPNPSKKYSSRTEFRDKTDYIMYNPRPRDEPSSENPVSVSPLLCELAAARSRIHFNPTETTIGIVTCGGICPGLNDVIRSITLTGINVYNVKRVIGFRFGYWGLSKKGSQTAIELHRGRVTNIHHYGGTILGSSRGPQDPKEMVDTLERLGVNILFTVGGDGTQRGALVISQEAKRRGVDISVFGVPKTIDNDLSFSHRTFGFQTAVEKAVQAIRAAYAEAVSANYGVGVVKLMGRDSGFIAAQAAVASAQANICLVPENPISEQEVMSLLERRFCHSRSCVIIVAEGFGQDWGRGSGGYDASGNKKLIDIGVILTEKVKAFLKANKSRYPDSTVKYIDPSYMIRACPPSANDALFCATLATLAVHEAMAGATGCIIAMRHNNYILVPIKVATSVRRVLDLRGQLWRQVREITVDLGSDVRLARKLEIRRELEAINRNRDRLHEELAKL", "assay": "qHTS Assay to Find Inhibitors of T. brucei phosphofructokinase; also: nearly all actives have a fitted effect of over 60% in size", "conditions": "T. brucei PFK, ADP-Glo luminescence; series mostly up to 57.5 µM", "procedure,_shortened": "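1.25 nM PFK with 0.5 mM F6P and 0.1 mM ATP in 0.1 M TEA pH 8.0, 5 mM MgCl2, incubated 45 min at room temperature; ADP measured by ADP-Glo luminescence; compounds titrated up to 57 uM.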", "values": [{"smiles": "O=C(O)c1ccc(-n2cccc2/C=C2/SC(=O)N(CC(=O)N3CCCC3)C2=O)cc1", "Potency": "inconclusive [falling, partial curve]"}, {"smiles": "COc1ccc(-c2nn(-c3ccccc3)cc2C(=O)NC(=S)N2CCOCC2)cc1OC", "Potency": "inactive"}, {"smiles": "CC1=C(C(=O)Nc2ccccc2)C(c2ccc[nH]2)n2ncnc2N1", "note": "(centres undefined)", "Potency": "inconclusive [falling, full curve]"}, {"smiles": "CSc1nc(=S)c2[nH]c(=S)[nH]c2[nH]1", "Potency": "inconclusive [falling, partial curve]"}, {"smiles": "Fc1ccc(NCc2cccnc2)cc1", "Potency": "inconclusive [falling, single point]"}, {"smiles": "COc1cccc(/C=N/NC(=O)c2ccc(-c3ccccc3)cc2)c1O", "Potency": "inconclusive [falling, single point]"}, {"smiles": "CCC1(c2ccc(Cl)cc2)NC(=O)N(CC(=O)N2CCN(C(=O)c3ccco3)CC2)C1=O", "note": "(centres undefined)", "Potency": "inactive"}, {"smiles": "CCCN(C(=O)C1CCCN(c2ncnc3c2nc2n3CCCCC2)C1)c1ccc(F)cc1", "note": "(centres undefined)", "Potency": "inconclusive [falling, single point]"}, {"smiles": "Cc1ccc(C(=O)O)cc1NC(=S)NC(=O)Cc1ccccc1", "Potency": "inconclusive [activator, partial curve]"}, {"smiles": "CCOC(=O)CSC1=C(C#N)C(=O)NC(c2ccc(OC)cc2)S1", "note": "(centres undefined)", "Potency": "inconclusive [falling, single point]"}, {"smiles": "COc1ccc(OC)c(NC(=O)c2[nH]c(C)c(C(C)=O)c2C)c1", "Potency": "inactive"}, {"smiles": "CC(C)NC(=O)COC(=O)CNC(=O)c1cc(Cl)cc([N+](=O)[O-])c1", "Potency": "inactive"}, {"smiles": "COc1ccc(CNc2nc(Cl)c(C#N)s2)cc1", "Potency": "active: 12 µM"}, {"smiles": "O=C(NCCc1csc(-c2cccnc2)n1)c1ccc(Br)o1", "Potency": "inconclusive [falling, single point]"}, {"smiles": "CCOC(=O)C1=C(C)NC(=S)NC1c1ccc(-c2cccc(Cl)c2C)o1", "note": "(centres undefined)", "Potency": "inactive"}, {"smiles": "O=C(Nc1cccc(C(F)(F)F)c1)C1CCCO1", "note": "(centres undefined)", "Potency": "inconclusive [falling, single point]"}, {"smiles": "CCCCn1c(O)c(N=NC(=O)c2ccccc2NS(=O)(=O)c2cccs2)c2ccccc21", "Potency": "inconclusive [activator, single point]"}, {"smiles": "CCOC(=O)C1=C(C)N(c2ccc(OC)cc2)C(=O)/C1=C\\c1ccc(O)c(OCC)c1", "Potency": "inconclusive [falling, single point]"}, {"smiles": "Cc1ccc(S(=O)(=O)N2CCCC2C(=O)OCc2ccco2)cc1", "note": "(centres undefined)", "Potency": "inconclusive [falling, single point]"}, {"smiles": "O=C(NCCCSc1ccccc1)c1cccnc1", "Potency": "inconclusive [activator, partial curve]"}, {"smiles": "O=S(=O)(Nc1cc(S(=O)(=O)N2CCOCC2)ccc1O)c1ccc2c(c1)OCCCO2", "Potency": "inconclusive [falling, partial curve]"}, {"smiles": "Cc1ccc(C(=O)Nc2sc3c(c2C(=O)O)CCCCC3)o1", "Potency": "inactive"}, {"smiles": "CC1CCc2c(sc(NC(=O)c3cccs3)c2C(=O)O)C1", "note": "(centres undefined)", "Potency": "inconclusive [activator, single point]"}, {"smiles": "Nc1cc(=O)[nH]c(SCc2cccc(Cl)c2)n1", "Potency": "inconclusive [falling, partial curve]"}, {"smiles": "CN(CC(=O)N1CCN(Cc2ccccc2)CC1)C(=O)Cc1ccc(Cl)c(Cl)c1", "Potency": "inactive"}, {"smiles": "COc1cc(N=c2ssnc2Cl)cc(OC)c1", "Potency": "inconclusive [falling, single point]"}, {"smiles": "C(=N\\n1cnnc1)/c1cccs1", "Potency": "inactive"}, {"smiles": "COCCSc1nc2c(c(=O)[nH]c(=O)n2C)n1CCCc1ccccc1", "Potency": "inconclusive [falling, partial curve, poor fit]"}, {"smiles": "Cc1ccc(C(=O)N2CCN(c3ccc(NC(=S)NC(=O)Cc4ccccc4)cc3)CC2)cc1", "Potency": "inactive"}, {"smiles": "CC(=O)Nc1ccc(C(=O)Nc2nc(-c3ccccn3)cs2)cc1", "Potency": "inconclusive [activator, single point]"}, {"smiles": "Oc1ccc(Cl)cc1CNc1nccs1", "Potency": "inconclusive [falling, partial curve]"}, {"smiles": "S=C(NCc1ccco1)N1CCN(c2cccc(Cl)c2)CC1", "Potency": "inconclusive [falling, partial curve]"}, {"smiles": "Cc1cc(OC(C)C(=O)NCc2ccccn2)c2c(C)cc(=O)oc2c1", "note": "(centres undefined)", "Potency": "inactive"}, {"smiles": "N=c1ccn(Cc2ccc(Cl)c(Cl)c2)cc1", "Potency": "active: 1.69 µM"}, {"smiles": "Cc1ccccc1C(=O)N1CCN(c2ccc(NC(=O)c3cccc(OC(C)C)c3)cc2)CC1", "Potency": "inactive"}, {"smiles": "O=C(Cc1ccccc1)NC1CCN(S(=O)(=O)c2ccc(C(=O)O)cc2)CC1", "Potency": "inactive"}, {"smiles": "Cc1c(Cl)c([N+](=O)[O-])nn1CC(=O)NCc1cccs1", "Potency": "inconclusive [falling, partial curve]"}, {"smiles": "CCOC(=O)c1sc(N)c(C(=O)Nc2ccccc2OC)c1C", "Potency": "inconclusive [falling, partial curve]"}, {"smiles": "Cc1nc(SCC(=O)N2CCOCC2)c2c(=O)n(C)c(=O)n(C)c2n1", "Potency": "active: 23.9 µM"}, {"smiles": "O=C(COC(=O)/C=C/c1ccco1)Nc1ncc(C(F)(F)F)cc1Cl", "Potency": "active: 16.9 µM"}, {"smiles": "CC(C)(C)C1=CC(=O)C(=O)C(C(C)(C)C)=C1", "Potency": "inconclusive [activator, full curve]"}, {"smiles": "COc1c(C)cc(Br)cc1C(=O)Nc1ccc(Cc2ccncc2)cc1", "Potency": "inactive"}, {"smiles": "COc1ccccc1C(=O)O/N=C(\\N)c1ccccc1Cl", "Potency": "inconclusive [falling, single point]"}, {"smiles": "OC(CNc1ccccc1)Cn1ccc2ccccc21", "note": "(centres undefined)", "Potency": "inactive"}, {"smiles": "Cc1nnc(N/N=C\\c2ccc(-c3cccc(C(=O)O)c3)o2)n1N", "Potency": "inconclusive [falling, single point]"}, {"smiles": "CCn1c(/C=N/c2nc3ccccc3n2C)nc2ccccc21", "Potency": "inactive"}, {"smiles": "Cc1ccc(NC(=O)c2sc3nc(C)nc(N4CCN(c5ccccn5)CC4)c3c2C)c(C)c1", "Potency": "inactive"}, {"smiles": "Cc1ccc(C)c(NC(=O)NNC(=O)CCc2ccccc2)c1", "Potency": "inconclusive [falling, single point]"}, {"smiles": "CCN(CC)c1ccc(NC(=O)CCS(=O)(=O)c2ccc(Br)cc2)c(C)c1", "Potency": "inconclusive [falling, partial curve]"}, {"smiles": "CC1(c2ccc(Cl)cc2Cl)NC(=O)N(CC(=O)Nc2ccc3[nH]c(=O)[nH]c3c2)C1=O", "note": "(centres undefined)", "Potency": "inconclusive [falling, partial curve]"}, {"smiles": "CN1CCc2cccc3c2C1Cc1ccc(O)c(O)c1-3", "note": "(centres undefined)", "Potency": "active: 4.26 µM"}, {"smiles": "O=C(CSc1cccc2cccnc12)Nc1cc(C(=O)O)cc(C(=O)O)c1", "Potency": "inconclusive [falling, single point]"}, {"smiles": "CC(=O)Nc1ccc(C(=O)CSc2ncn(-c3ccccc3)n2)cc1", "Potency": "inconclusive [falling, single point]"}, {"smiles": "CN(c1ccccc1C(=O)Nc1ccc(S(=O)(=O)N2CCOCC2)cc1)S(C)(=O)=O", "Potency": "inconclusive [falling, single point]"}, {"smiles": "O=C(N/N=C/c1cccn1-c1cccc(C(=O)O)c1)Nc1ccccc1", "Potency": "inconclusive [falling, single point]"}, {"smiles": "Cc1ccc(NC(=S)NNc2ncc(C(F)(F)F)cc2Cl)c(C)c1", "Potency": "inconclusive [falling, single point]"}, {"smiles": "CC(=O)c1cccc(OCc2cc(C(=O)N(C)Cc3cnccn3)no2)c1", "Potency": "inconclusive [falling, single point]"}, {"smiles": "C=CCOCCN1C(=O)C2C3C=CC(C2C1=O)C1C2C(=O)N(CCOCC=C)C(=O)C2C31", "note": "(centres undefined)", "Potency": "inconclusive [falling, single point]"}, {"smiles": "CCOC(=O)CSC1=NC(=O)/C(=C/c2ccc(Br)cc2)S1", "Potency": "inactive"}, {"smiles": "Cc1cccc(C2NC(=O)c3c(sc(C)c3C)N2)c1O", "note": "(centres undefined)", "Potency": "inconclusive [falling, single point]"}, {"smiles": "Clc1ccc(CSc2nnc([C@@H]3CCCN3)o2)cc1Cl", "Potency": "active: 30.1 µM"}, {"smiles": "O=C(CSc1nnc(CNC(=O)c2c(F)cccc2F)o1)NCc1ccco1", "Potency": "inconclusive [falling, single point]"}, {"smiles": "O=c1cc(O)c2sc(Nc3ccc(F)cc3)nc2[nH]1", "Potency": "inactive"}, {"smiles": "O=C(O)/C=C/c1ccc2ccccc2n1", "Potency": "inconclusive [activator, single point]"}, {"smiles": "CCNc1nc(NCC)n2c(SCC(=O)Nc3ccc(C)c(C)c3)nnc2n1", "Potency": "active: 13.5 µM"}, {"smiles": "CC1CCCC(NC(=O)c2cc(-c3ccncc3)nc3ccccc23)C1C", "note": "(centres undefined)", "Potency": "inconclusive [activator, partial curve, poor fit]"}, {"smiles": "CN(C)C(=O)NC(Nc1cccc([N+](=O)[O-])c1)C(Cl)(Cl)Cl", "note": "(centres undefined)", "Potency": "inactive"}, {"smiles": "O=C(Nc1ccc(S(=O)(=O)N2CCCC2)cc1)C1COc2ccccc2O1", "note": "(centres undefined)", "Potency": "inconclusive [falling, single point]"}, {"smiles": "COc1cc2c(cc1NC(=O)CN(C)Cc1ccc(OC)c(OC)c1)oc1ccccc12", "Potency": "inactive"}, {"smiles": "Cc1ccc(C(=O)Nc2nnc(CC(=O)N/N=C/c3ccc(O)c(O)c3)s2)cc1", "Potency": "inconclusive [activator, partial curve]"}, {"smiles": "Cc1cc(NS(=O)(=O)c2ccc(NC(=O)Nc3cccc(Cl)c3)cc2)no1", "Potency": "inconclusive [falling, single point]"}, {"smiles": "Cc1cc(NC(=O)C2CC(c3ccc(F)cc3)=NO2)no1", "note": "(centres undefined)", "Potency": "inconclusive [falling, partial curve]"}, {"smiles": "COc1ccc(C)cc1NC(=O)C(=O)c1cn(CC(=O)N2CCCC2)c2ccccc12", "Potency": "inactive"}, {"smiles": "CCc1cc(=O)oc2cc(C)c(CN3CCCC3)c(O)c12", "Potency": "inconclusive [falling, full curve]"}]}]}
